According to PubChem BioAssay AID624417 (National Center for Advancing Translational Sciences (NCATS), 2012):
Where “and” joins values, the source holds several entries; their conditions need not be identical. Equal entries are not always repeated. The campaign covered roughly 410,000 compounds. About 6,400 (1.6%) were called active. Inconclusive means that the source gave no clear call. Such entries were picked first, then a sample of the others. Calls come from the whole dose curve; as a rule, active = well fitted inhibition curve with a large enough effect; inconclusive = small, poorly fitted or top-dose-only effect; inactive = no such curve, though single readings can be large or run the other way. No potency is given beside an inconclusive call; the fits are too rough.

Molecular target: Glucagon-like peptide 1 receptor (Homo sapiens) (UniProt P43220)
Assay: qHTS of GLP-1 Receptor Inverse Agonists (Inhibition Mode); note: nearly all actives have a fitted effect of over 55% in size
Details: HEK293 GLP-1R CRE-luciferase, luminescence, 24 h, GLP-1R form is constitutively active; activity change, negative = inhibition: at 38.3 µM (top of the series) unless noted
Outline: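 qHTS in 1536-well format: reporter HEK293 cells expressing constitutive GLP-1R activity in DMEM + 10% Nu serum, 24 hr with compounds at 37 deg C, luminescence read after 12 min with detection reagent.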
% is set by controls: 0 for no effect and ±100 for the full control effect; potency is the fitted concentration of half-maximal effect; tags give direction and shape of the fitted curve.

Chain of UniProt P43220 (P43220 whole entry, looked up): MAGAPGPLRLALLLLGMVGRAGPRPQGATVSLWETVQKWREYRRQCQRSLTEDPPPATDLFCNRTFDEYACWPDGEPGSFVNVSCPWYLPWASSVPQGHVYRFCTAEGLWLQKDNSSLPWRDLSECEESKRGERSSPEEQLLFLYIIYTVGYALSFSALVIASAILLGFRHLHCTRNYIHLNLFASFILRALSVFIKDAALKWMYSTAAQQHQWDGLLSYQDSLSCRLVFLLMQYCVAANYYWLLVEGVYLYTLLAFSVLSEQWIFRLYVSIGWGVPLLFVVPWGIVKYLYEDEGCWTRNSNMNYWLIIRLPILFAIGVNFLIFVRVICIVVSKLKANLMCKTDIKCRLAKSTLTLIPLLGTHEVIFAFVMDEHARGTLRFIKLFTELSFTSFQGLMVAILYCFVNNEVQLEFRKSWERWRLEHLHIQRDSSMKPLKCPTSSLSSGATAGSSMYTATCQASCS

SMILES	Potency	activity change, negative = inhibition
CCc1cccc(C)c1NC(=O)C1CCN(S(=O)(=O)c2cccc3nonc23)CC1	inconclusive [inhibitor, single point]	
Cc1ccc2oc(=O)n(CCOc3ccccc3C)c2c1	inconclusive [inhibitor, partial curve, poor fit]	
Cc1cc(Nc2ccc(Br)cc2)nc2ccccc12	inconclusive [inhibitor, single point]	
COc1ccc(OCC(O)Cn2cnc(-c3ccc(Br)cc3)c2)cc1 (configuration not stated)	inconclusive [inhibitor, single point]	
Cc1cccc(Sc2ccc([N+](=O)[O-])cc2[N+](=O)[O-])n1	inconclusive [inhibitor, single point]	
Cc1cc(N2CCCCCC2)nc2ccccc12	inconclusive [inhibitor, partial curve, poor fit]	
COc1cccc(C#CC2=CC(=O)C[C@H](c3ccc(F)cc3)C2)c1	inconclusive [inhibitor, partial curve, poor fit]	
CC(C)C(OC(=O)c1cccs1)C(=O)NC1CCCCC1 (configuration not stated)	inconclusive [inhibitor, partial curve]	
COc1ccc(C(C)(NC(C)=O)c2nc(-c3cc(F)cc(F)c3)cs2)cc1 (configuration not stated)	inconclusive [inhibitor, single point]	
CC(C)c1ccc(S(=O)(=O)c2n[nH]n3c2nc(=O)c2ccccc23)cc1		inactive: 0%
OCC1(Cc2ccc(F)cc2)CCCN(Cc2ccc(F)cc2Cl)C1 (configuration not stated)	inconclusive [inhibitor, partial curve, poor fit]	
COc1ccc(C(=O)COc2ccc(F)cc2)c(O)c1	inconclusive [inhibitor, partial curve, poor fit]	
CCOc1ccc(CCNC(=O)c2cccc(-n3c(C)nc4cccnc43)c2C)cc1		inactive: -1.45%
CN(Cc1ccc2nsnc2c1)Cc1nc(Cc2cccc(F)c2)no1	inconclusive [inhibitor, single point]	
CCOC(=O)CCCN1C(=O)CCn2nc(-c3cn(C)c4ccccc34)cc21		inactive: 17.5%
CCOC(=O)C1(CCOc2ccccc2)CCN(Cc2cc(OC)ccc2OC)CC1	inconclusive [inhibitor, partial curve, poor fit]	
CCOc1ccc(CNC(=O)c2cnc3sc(N(CC)CC)nn3c2=O)cc1		inactive: 10.4%
COc1ccc(-n2c(N)c(C(=O)NCc3ccco3)c3nc4ccccc4nc32)cc1	inconclusive [inhibitor, single point]	
Cc1cc(N)n(-c2ccc(C)c(C)c2)n1	inconclusive [inhibitor, partial curve, poor fit]	
Brc1ccc2c(c1)-c1ccccc1C1=NCCN12	inconclusive [inhibitor, partial curve, poor fit]	
CCCCCNC(=O)C(c1ccnc2ccccc12)n1c(=O)c(-c2cc3ccccc3[nH]2)nc2ccccc21 (configuration not stated)	inconclusive [inhibitor, partial curve, poor fit]	
Cc1ccc(CNC(=O)CN2CCN(Cc3ccc(Cl)cc3)C2=O)cc1	active: 7.94 µM	
O=C1C(=Cc2cccs2)Oc2ccccc21	inconclusive [inhibitor, single point]	

SMILES	Potency	activity change, negative = inhibition
CCC(C(=O)OCC(=O)Nc1ccccc1-c1ccccc1)c1ccccc1 (configuration not stated)	inconclusive [inhibitor, single point]	
CC1CCc2sc(C(=O)NC(C)C3CCCO3)cc2C1 (configuration not stated)		inactive: -7.61%
O=C(CCc1ccccc1)NC(=S)Nc1ccc2c(c1)C(=O)OC2		inactive: -14.3%
CCc1nc2c(OCc3cccc(Cl)c3)cccn2c1N(C)C(=O)c1ccco1	inconclusive [inhibitor, partial curve, poor fit]	
COc1ccccc1CNC(=O)COC(=O)c1c(C)nn(-c2ccccc2)c1Cl	inconclusive [inhibitor, single point]	
CCOc1ccc(-n2ccnc2SCC(=O)Nc2ccc3c(c2)OCO3)cc1	inconclusive [inhibitor, partial curve, poor fit]	
COC(=O)N(C)C[C@@H]1OCc2cn(nn2)CCCC(=O)N([C@@H](C)CO)C[C@H]1C		inactive: -7.91%
CCN(CC)CCCNCC(=O)Nc1cc(C)on1		inactive: -2.29%
CCN(CC)S(=O)(=O)c1ccc(NC(=O)C2c3ccccc3Oc3ccccc32)cc1	inconclusive [inhibitor, partial curve]	
Cc1ccc(C)c(N=Cc2ccc(-c3ccc([N+](=O)[O-])cc3)o2)c1	inconclusive [inhibitor, partial curve, poor fit]	
CC(C)Nc1nc(Cl)nc(NC2CCCCC2)n1	inconclusive [inhibitor, single point]	
CNC(=O)c1sc(SC)cc1-c1ccc(Cl)cc1	inconclusive [inhibitor, single point]	
COC(=O)c1cc2ccsc2n1Cc1nc(-c2ccc(OC)cc2)oc1C	inconclusive [inhibitor, single point]	
COc1cccc2sc(NN)nc12	inconclusive [inhibitor, single point]	
COC(=O)c1ccccc1NC(=O)COC(=O)c1ccccc1N=Nc1ccc(N(C)C)cc1		inactive: 2.33%
COC(=O)c1c(NC(NC(=O)C(C)(C)C)C(Cl)(Cl)Cl)sc2c1CCC2 (configuration not stated)	inconclusive [inhibitor, full curve, poor fit]	
Cc1ccc(S(=O)(=O)c2nc(-c3ccco3)oc2SCc2ccc(F)cc2)cc1	inconclusive [inhibitor, single point]	
COc1cc(/C=N/NC(=O)CCN2CCCCC2)ccc1O		inactive: -13%
Cc1ccc(NC(=O)C2CCCN2S(=O)(=O)c2ccc3c(c2)C(C)(C)C(=O)N3C)cc1 (configuration not stated)		inactive: 0.607%
O=C(Nc1ccc(Cl)cn1)c1ccccc1F	inconclusive [inhibitor, single point]	
CC(C)N(C(=O)CN1CCC(c2nc3ccccc3[nH]2)CC1)C(C)C	inconclusive [inhibitor, full curve]	
Cc1cccc(N2CCN(C(=O)Cn3ncc4c([nH]c5ccccc54)c3=O)CC2C)c1 (configuration not stated)		inactive: 9.6%
CCOC(=O)[C@]12CCCC=C1N(Cc1ccc(Cl)cc1Cl)C(=O)[C@H](CC(=O)N1CCCCC1)C2	inconclusive [inhibitor, single point]	

SMILES	Potency	activity change, negative = inhibition
COc1cc(NC(=O)C2Cc3ccccc3CN2S(C)(=O)=O)cc(OC)c1 (configuration not stated)		inactive: -8.05%
COc1ccc(N2CCN(C(=O)C(C)n3c(=O)cc(C(F)(F)F)c4c(C)nn(C)c43)CC2)cc1 (configuration not stated)		inactive: 14.3%
Cc1[nH]c2ccc(F)cc2c1CCN(Cc1ccncc1)C(=S)Nc1cccc(F)c1	inconclusive [inhibitor, partial curve]	
CCCCCCCCCCCCCCCCn1cc[n+](C)c1	active: 2.82 µM and active: 7.08 µM	
CCOc1ccc(C(=O)OCC(=O)N(Cc2ccccc2)Cc2ccccc2)cc1OC	active: 10 µM	
COc1cc(C(c2sc3nc(C)nn3c2O)N2CCC3(CC2)OCCO3)cc(OC)c1OC (configuration not stated)		inactive: 31.8%
COc1ccccc1CNS(=O)(=O)c1ccc2c(c1)CC(C)N2C(=O)C1CCC1 (configuration not stated)	inconclusive [inhibitor, single point]	
CC1CCCCN1C(=O)CSc1nnc(-c2ccc(Cl)s2)o1 (configuration not stated)	inconclusive [inhibitor, single point]	
COc1ccc(C2CC(c3ccc4ccccc4c3)=NN2C(=O)CSc2ncccn2)cc1 (configuration not stated)	inconclusive [inhibitor, single point]	
CCCCOc1ccc(C(=O)NCC(=O)NCC(c2ccc(OC)cc2)N2CCCC2)cc1 (configuration not stated)	inconclusive [inhibitor, partial curve, poor fit]	
Cc1c(-c2ccccc2)nc2ccccc2c1C(=O)OCC(=O)Nc1ncc(C(F)(F)F)cc1Cl	inconclusive [inhibitor, single point]	
COc1ccc([C@H]2CN(c3ccc(OC)cc3)C(=O)[C@@H]2CC(=O)Nc2ccc(Br)cc2)cc1	inconclusive [inhibitor, partial curve, poor fit]	
Cc1ccc(Sc2c(C)nn(C(=O)c3ccc(Br)cc3)c2C)cc1		inactive: 13.6%
CCOc1ccc(S(=O)(=O)N2CCC(C(=O)N3CCCCCC3)CC2)cc1Cl	inconclusive [inhibitor, single point]	
COc1ccc(Nc2ncnc3onc(C)c23)c(OC)c1		inactive: 8.91%
OC(CNCCc1ccccc1)COc1ccc(OCC(O)CNCCc2ccccc2)cc1 (configuration not stated)	inconclusive [inhibitor, partial curve]	
COc1ccc(C2c3c(ncn(CCCO)c3=N)Oc3ccc4ccccc4c32)cc1 (configuration not stated)	inconclusive [inhibitor, partial curve, poor fit]	
CN(Cc1ccc(F)cc1)C(=O)C(Cc1ccccc1)NC(=O)c1ccccc1 (configuration not stated)	inconclusive [inhibitor, partial curve, poor fit]	
Cc1ccc(C)c(S(=O)(=O)N2CCN(C(=O)CCNS(=O)(=O)c3ccc(C)c(C)c3)CC2)c1	inconclusive [inhibitor, single point]	
CC(C)(C)OC(=O)NCc1ccc(CNC(=O)c2[nH]cnc2C(=O)NCC(=O)OCc2ccccc2)cc1		inactive: -15.4%
COC(=O)N[C@H](c1ccccc1)[C@@]1(C)C[C@@H]1[C@@H](C)C(=O)Nc1ccc2ccccc2c1	inconclusive [inhibitor, single point]	
